How the values were obtained:
[1] = Differential scanning fluorimetry (Protein Thermal Shift assay), thermal stability; format: physicochemical; conditions: DSF, melt 25° C. to 95° C., triplicate; in °C (unit assumed)
Protocol: Human ANGPTL7 monoclonal antibody differential scanning fluorimetry (DSF). […] Among the many techniques used to study the stability of mAbs, differential scanning fluorimetry (DSF) offers both excellent throughput and minimal material consumption. DSF measures the temperature of the protein unfolding transition (Tm) based on the change in fluorescence intensity of an environmentally sensitive dye.
Experiments were conducted to assess the thermal stability of the human ANGPTL7 monoclonal antibodies (“ATX” antibodies) of the present disclosure by determining the melting temperature. Thermal stability was assessed via differential scanning fluorimetry (DSF) utilizing the Protein Thermal Shift (PTS) assay from Applied Biosystems. The assay was performed according to the manufacturer's instruction. Briefly, the antibody to be evaluated was prepared in triplicate by mixing with Protein Thermal Shift dye and buffer; a real-time melt experiment from 25° C. to 95° C. was run on QuantStudio 3. Data was analyzed by using Protein Thermal Shift Software and the melting temperature (Tm) was calculated from the melt curve (Table 1).

[2] = target: T1, human ANGPTL7 GGPGG_sub-his protein (P63) (Homo sapiens, UniProt O43827, INS58GGPG/L59G); assay: Octet HTX binding kinetics to P63 (huANGTPL7-GGPGG_sub-his); conditions: P63 @ 100 nM
T1 construct: Additionally, the native signal peptide was removed and replaced with a signal peptide conducive to recombinant expression; made in house; host or cells: human embryonic kidney cells (transient transfection, secreted)
T1 sequence (O43827 with tags, fused parts or gaps INS58GGPG/L59G): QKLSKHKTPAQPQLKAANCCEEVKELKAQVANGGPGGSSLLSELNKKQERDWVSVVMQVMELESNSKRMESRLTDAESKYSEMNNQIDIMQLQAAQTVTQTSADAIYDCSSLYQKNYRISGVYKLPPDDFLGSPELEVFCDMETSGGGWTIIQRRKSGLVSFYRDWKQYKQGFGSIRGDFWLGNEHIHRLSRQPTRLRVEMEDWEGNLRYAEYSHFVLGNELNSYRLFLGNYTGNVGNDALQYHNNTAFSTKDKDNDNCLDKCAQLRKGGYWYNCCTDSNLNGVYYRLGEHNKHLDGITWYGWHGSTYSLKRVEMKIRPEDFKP
Protocol: Experiments were also conducted to determine the reactivity and dissociation constants (KD) of anti-ANGPTL7 antibodies with the human ANGPTL7 GGPGG_sub-his protein. Binding experiments were performed on Octet HTX (ForteBo) in 1×PBS, pH 7.4, 0.1 mg/mi BSA, 0.05% Sodium Azide, and 0.02% Tween 20. Antibodies at a concentration of 50 nM were loaded on pre-hydrated AHC biosensors for 5 min. The loaded sensors were dipped into monovalent P63 (huANGTPL7-GGPGG_sub-his) at a concentration of 100 nM for 5 min of association, followed by 10 min of dissociation. Results were analyzed with ForteBio Data Analysis 11.1 and fit to a 1:1 binding model to determine the monovalent KD.

[3] = tested on: rabbit ANGPTL7 protein (P66, rabbit ANGPTL7-his); assay: Octet HTX binding kinetics to P66 (rabbit ANGPTL7-his); conditions: P66 @ 200 nM
Protocol: Experiments were also conducted to determine the reactivity and dissociation constants ([…]) of anti-ANGPTL7 antibodies with the rabbit ANGPTL7 protein. Binding experiments were performed on Octet HTX (ForteBio) in Rx PBS, pH 7.4, 0.1 mg/mi BSA, 0.05% Sodium Azide, and 0.02% Tween 20. Antibodies at a concentration of 50 nM were loaded on pre-hydrated AHC biosensors for 5 min. The loaded sensors were dipped into monovalent P66 (rabbit ANGPTL7-his) at a concentration of 200 nM for 5 min of association, followed by 10 min of dissociation. Results were analyzed with ForteBio Data Analysis 11.1 and fit to a 1:1 binding model to determine the monovalent KD. Responses (nm) at the end of association were also determined (Table 6).

[4] = target: T2, human fibrinogen domain of the ANGPTL7 protein (P60, huANGPTL7-Fibrinogen-his) (Homo sapiens, UniProt O43827); assay: Octet HTX binding kinetics to P60 (huANGPTL7-Fibrinogen-his); conditions: P60 @ 200 nM
T2 construct: made in house; host or cells: human embryonic kidney cells (transient transfection, secreted)
T2 sequence (O43827 129-343): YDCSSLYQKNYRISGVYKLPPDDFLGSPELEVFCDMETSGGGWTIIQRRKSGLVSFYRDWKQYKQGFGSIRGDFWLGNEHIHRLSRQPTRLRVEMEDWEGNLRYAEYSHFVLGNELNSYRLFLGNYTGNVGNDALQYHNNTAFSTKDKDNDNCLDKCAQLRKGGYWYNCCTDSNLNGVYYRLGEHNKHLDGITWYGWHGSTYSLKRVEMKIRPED
Protocol: ANGPTL7 Antibody Kinetics. Experiments were conducted to determine the reactivity and dissociation constants (KD) of anti-ANGPTL7 antibodies with the human fibrinogen domain of the ANGPTL7 protein. Binding experiments were performed on Octet HTX (ForteBio) in 1×PBS, pH 7.4, 0.1 mg/ml BSA, 0.05% Sodium Azide, and 0.02 Tween 20. Antibodies at a concentration of 50 nM were loaded on pre-hydrated AHC biosensors for 5 min. The loaded sensors were dipped into monovalent P60 (huANGPTL7-Fibrinogen-his) at a concentration of 200 nM for 5 min association, followed by 10 min dissociation. Results were analyzed with ForteBio Data Analysis 11.1 and fit to a 1:1 binding model to determine the monovalent KD. Responses (nm) at the end of association were also determined (Table 2).

B1: ATX-P-433: human anti-ANGPTL7 monoclonal antibody; HCDR1-3 SEQ ID NOs 42, 58, 73; LCDR1-3 SEQ ID NOs 94, 106, 118 (antibody)
heavy: EVQLVESGGGLVQPGRSLRLSCAASGFTFDDFAMHWVRQGPGKGLEWVSGIGWNSGSIGYADSVKGRFTISRDNAKNSLYLQMNSLRAEDTALYYCAKAPDYGDYYFDYWGQGTLVTVSS
light: DIQMTQSPSSLSASVGDRVTITCRASQSISIYLNWYQQKPGTAPKLLIYAASSLQSGVPSRFSGSGSGTDFTLTISSLQPEDFAAYYCQQSYTTPLTFGGGTKVEIKRTVAAPSVFIFPPSDEQLKSGTASVVCLLNNFYPREAKVQWKVDNALQSGNSQESVTEQDSKDSTYSLSSTLTLSKADYEKHKVYACEVTHQGLSSPVTKSFNRGEC
[1]
  Tm 2 - Mean: 72.49
  Tm D - Mean: 62.68
[2]
  kdis: 0.00253 s⁻¹
  kon: 134000 M⁻¹ s⁻¹
[3]
  kdis(1/8): 7.27E−04 1/8
  kon: 104000 M⁻¹ s⁻¹
[4]
  kdis: 0.00243 s⁻¹
  kon: 223000 M⁻¹ s⁻¹
